Residue numbers refer to the chain shown, from its start. Some of the results follow.
T1: RBFOX1 RRM (Homo sapiens, UniProt Q9NWB1 109-208)
T1 sequence: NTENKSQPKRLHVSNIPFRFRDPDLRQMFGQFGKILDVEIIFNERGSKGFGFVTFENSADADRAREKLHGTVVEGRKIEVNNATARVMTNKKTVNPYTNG

B1: AUCAUGG (DNA:RNA)
RNA: GGGAGACCGGAAUUCAGAUUGUCCAUCAUGGUUAAAUCCCGUCGUAGCCACCA
DNA 1: CAATCTGAATTCCGGTCTCCC
DNA 2: TGGTGGCTACGACGGGATT
B2: AUUGUAC (DNA:RNA)
RNA: B1 RNA with C27U, A28G, G30A, G31C
DNA 1: CAATCTGAATTCCGGTCTCCC
DNA 2: TGGTGGCTACGACGGGATT
B3: AGGUAGA (DNA:RNA)
RNA: B1 RNA with U26G, C27G, A28U, U29A, G31A
DNA 1: CAATCTGAATTCCGGTCTCCC
DNA 2: TGGTGGCTACGACGGGATT
B4: UCGCCCG (DNA:RNA)
RNA: B1 RNA with A25U, U26C, C27G, A28C, U29C, G30C
DNA 1: CAATCTGAATTCCGGTCTCCC
DNA 2: TGGTGGCTACGACGGGATT
B5: GCAUUUA (DNA:RNA)
RNA: B1 RNA with A25G, U26C, C27A, A28U, G30U, G31A
DNA 1: CAATCTGAATTCCGGTCTCCC
DNA 2: TGGTGGCTACGACGGGATT
B6: CCUUUCC (DNA:RNA)
RNA: B1 RNA with A25C, U26C, C27U, A28U, G30C, G31C
DNA 1: CAATCTGAATTCCGGTCTCCC
DNA 2: TGGTGGCTACGACGGGATT
B7: CAUGCAG (DNA:RNA)
RNA: B1 RNA with A25C, U26A, C27U, A28G, U29C, G30A
DNA 1: CAATCTGAATTCCGGTCTCCC
DNA 2: TGGTGGCTACGACGGGATT
B8: GCUGGGU (DNA:RNA)
RNA: B1 RNA with A25G, U26C, C27U, A28G, U29G, G31U
DNA 1: CAATCTGAATTCCGGTCTCCC
DNA 2: TGGTGGCTACGACGGGATT
B9: UAUUCAU (DNA:RNA)
RNA: GGGAGACCGGAAUUCAGAUUGUCCUAUUCAUUUAAAUCCCGUCGUAGCCACCA
DNA 1: CAATCTGAATTCCGGTCTCCC
DNA 2: TGGTGGCTACGACGGGATT
B10: CAGUCAU (DNA:RNA)
RNA: B9 RNA with U25C, U27G
DNA 1: CAATCTGAATTCCGGTCTCCC
DNA 2: TGGTGGCTACGACGGGATT
B11: GUGUUCA (DNA:RNA)
RNA: B1 RNA with A25G, C27G, A28U, G30C, G31A
DNA 1: CAATCTGAATTCCGGTCTCCC
DNA 2: TGGTGGCTACGACGGGATT
B12: CCUAACG (DNA:RNA)
RNA: B1 RNA with A25C, U26C, C27U, U29A, G30C
DNA 1: CAATCTGAATTCCGGTCTCCC
DNA 2: TGGTGGCTACGACGGGATT
B13: UCGUAAU (DNA:RNA)
RNA: B9 RNA with A26C, U27G, C29A
DNA 1: CAATCTGAATTCCGGTCTCCC
DNA 2: TGGTGGCTACGACGGGATT
B14: GUGCUAC (DNA:RNA)
RNA: B1 RNA with A25G, C27G, A28C, G30A, G31C
DNA 1: CAATCTGAATTCCGGTCTCCC
DNA 2: TGGTGGCTACGACGGGATT
B15: GAUUAGC (DNA:RNA)
RNA: B9 RNA with U25G, C29A, A30G, U31C
DNA 1: CAATCTGAATTCCGGTCTCCC
DNA 2: TGGTGGCTACGACGGGATT
B16: CAGCUUG (DNA:RNA)
RNA: B1 RNA with A25C, U26A, C27G, A28C, G30U
DNA 1: CAATCTGAATTCCGGTCTCCC
DNA 2: TGGTGGCTACGACGGGATT
B17: GUCCGUA (DNA:RNA)
RNA: B1 RNA with A25G, A28C, U29G, G30U, G31A
DNA 1: CAATCTGAATTCCGGTCTCCC
DNA 2: TGGTGGCTACGACGGGATT
B18: UAGAGCA (DNA:RNA)
RNA: B9 RNA with U27G, U28A, C29G, A30C, U31A
DNA 1: CAATCTGAATTCCGGTCTCCC
DNA 2: TGGTGGCTACGACGGGATT
B19: GAGAUGC (DNA:RNA)
RNA: B1 RNA with A25G, U26A, C27G, G31C
DNA 1: CAATCTGAATTCCGGTCTCCC
DNA 2: TGGTGGCTACGACGGGATT
B20: CCUAACA (DNA:RNA)
RNA: B1 RNA with A25C, U26C, C27U, U29A, G30C, G31A
DNA 1: CAATCTGAATTCCGGTCTCCC
DNA 2: TGGTGGCTACGACGGGATT
B21: UGAGGCG (DNA:RNA)
RNA: B1 RNA with A25U, U26G, C27A, A28G, U29G, G30C
DNA 1: CAATCTGAATTCCGGTCTCCC
DNA 2: TGGTGGCTACGACGGGATT
B22: AACCGAA (DNA:RNA)
RNA: B1 RNA with U26A, A28C, U29G, G30A, G31A
DNA 1: CAATCTGAATTCCGGTCTCCC
DNA 2: TGGTGGCTACGACGGGATT
B23: AGUUAGU (DNA:RNA)
RNA: B9 RNA with U25A, A26G, C29A, A30G
DNA 1: CAATCTGAATTCCGGTCTCCC
DNA 2: TGGTGGCTACGACGGGATT
B24: AUGAAGG (DNA:RNA)
RNA: B1 RNA with C27G, U29A
DNA 1: CAATCTGAATTCCGGTCTCCC
DNA 2: TGGTGGCTACGACGGGATT
B25: AAAGGCU (DNA:RNA)
RNA: B9 RNA with U25A, U27A, U28G, C29G, A30C
DNA 1: CAATCTGAATTCCGGTCTCCC
DNA 2: TGGTGGCTACGACGGGATT
B26: GCCGGAU (DNA:RNA)
RNA: B9 RNA with U25G, A26C, U27C, U28G, C29G
DNA 1: CAATCTGAATTCCGGTCTCCC
DNA 2: TGGTGGCTACGACGGGATT
B27: UACGCUG (DNA:RNA)
RNA: B9 RNA with U27C, U28G, A30U, U31G
DNA 1: CAATCTGAATTCCGGTCTCCC
DNA 2: TGGTGGCTACGACGGGATT
B28: GUUAGCC (DNA:RNA)
RNA: B1 RNA with A25G, C27U, U29G, G30C, G31C
DNA 1: CAATCTGAATTCCGGTCTCCC
DNA 2: TGGTGGCTACGACGGGATT
B29: CGAUAGC (DNA:RNA)
RNA: B1 RNA with A25C, U26G, C27A, A28U, U29A, G31C
DNA 1: CAATCTGAATTCCGGTCTCCC
DNA 2: TGGTGGCTACGACGGGATT
B30: UACUUAA (DNA:RNA)
RNA: B9 RNA with U27C, C29U, U31A
DNA 1: CAATCTGAATTCCGGTCTCCC
DNA 2: TGGTGGCTACGACGGGATT
B31: ACUGUUG (DNA:RNA)
RNA: B1 RNA with U26C, C27U, A28G, G30U
DNA 1: CAATCTGAATTCCGGTCTCCC
DNA 2: TGGTGGCTACGACGGGATT

Target: T1, RBFOX1 RRM
Assay: EMSA; HiTS-Eq, 1 nM pool, 10 min; buffer printed only for the single-RNA assays: 10 mM Tris pH 7.5, 150 mM NaCl, 3.4 mM EDTA, 0.001% NP-40, 30 C
Conditions: tags: His6 N-terminal (pET28a); label: 5' 32P
Summary of the method: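 Purified RbFox RRM (wild type or mutant) was equilibrated for 10 min in 50 µL with 1 nM of a 5′-radiolabelled pool of RNA with 7 randomized nucleotides, its flanks annealed to DNA oligonucleotides, across increasing protein concentrations. Free RNA was separated by 8% native PAGE, excised, reverse-transcribed, PCR-barcoded and sequenced on an Illumina HiSeq 2500. Relative association constants came from read-count changes of each variant against the control reaction, normalised to the cognate motif.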

| Binder | binding signal |
| --- | --- |
| B1 | 0.0063 KA relative to UGCAUGU |
| B2 | 0.0076 KA relative to UGCAUGU |
| B3 | 0.0121 KA relative to UGCAUGU |
| B4 | 0.0174 KA relative to UGCAUGU |
| B5 | 0.00335 KA relative to UGCAUGU |
| B6 | 0.0033 KA relative to UGCAUGU |
| B7 | 0.00941 KA relative to UGCAUGU |
| B8 | 0.0155 KA relative to UGCAUGU |
| B9 | 0.00681 KA relative to UGCAUGU |
| B10 | 0.00308 KA relative to UGCAUGU |
| B11 | 0.0118 KA relative to UGCAUGU |
| B12 | 0.00116 KA relative to UGCAUGU |
| B13 | 0.00858 KA relative to UGCAUGU |
| B14 | 0.0161 KA relative to UGCAUGU |
| B15 | 0.0124 KA relative to UGCAUGU |
| B16 | 0.0239 KA relative to UGCAUGU |

| Binder | binding signal |
| --- | --- |
| B17 | 0.0126 KA relative to UGCAUGU |
| B18 | 0.0143 KA relative to UGCAUGU |
| B19 | 0.0134 KA relative to UGCAUGU |
| B20 | 0.00162 KA relative to UGCAUGU |
| B21 | 0.0139 KA relative to UGCAUGU |
| B22 | 0.00264 KA relative to UGCAUGU |
| B23 | 0.00994 KA relative to UGCAUGU |
| B24 | 0.0153 KA relative to UGCAUGU |
| B25 | 0.00555 KA relative to UGCAUGU |
| B26 | 0.0131 KA relative to UGCAUGU |
| B27 | 0.0144 KA relative to UGCAUGU |
| B28 | 0.0117 KA relative to UGCAUGU |
| B29 | 0.0128 KA relative to UGCAUGU |
| B30 | 0.002 KA relative to UGCAUGU |
| B31 | 0.0163 KA relative to UGCAUGU |

From paper PMC9911399, “Two distinct binding modes provide the RNA-binding protein RbFox with extraordinary sequence specificity”
